# Among all 2,000 compounds or so, about 110 (5.5%) showed an effect of 50% or more. The list shows a part of the results.
# Biological target: Genome polyprotein (dengue virus type 2) (UniProt P29990)
# [1] = Thailand/16681/1984, Concentration 25.0 uM, Number of replicates 1.0
smiles,measurement,setting,value
CCn1c(CNC(=O)c2ccc(O)c(NC(=O)c3ccncc3F)c2C)n[nH]c1=O,inhibition,"Thailand/16681/1984, Concentration 49.5 uM, Number of replicates 2.0, Standard deviation 0.676667273520767 %",-1.12%
same,inhibition,"Thailand/16681/1984, Concentration 99.01 uM, Number of replicates 2.0, Standard deviation 0.09913961884509878 %",0.163%
same,inhibition,"Thailand/16681/1984, Concentration 198.0 uM, Number of replicates 2.0, Standard deviation 1.3423189960067998 %",0.938%
COC(=O)c1sccc1CNCc1nnc2ccccn12,inhibition,"Thailand/16681/1984, Concentration 49.5 uM, Number of replicates 2.0, Standard deviation 1.980130403023452 %",-1.81%
same,inhibition,"Thailand/16681/1984, Concentration 99.01 uM, Number of replicates 2.0, Standard deviation 1.85824235460103 %",-1.36%
same,inhibition,"Thailand/16681/1984, Concentration 198.0 uM, Number of replicates 2.0, Standard deviation 1.964289394106799 %",-1.28%
Cc1[nH]nc2ccc(C(=O)NC3(C)CN(C(=O)c4cnc(N)s4)C3)c(Cl)c12,inhibition,"Thailand/16681/1984, Concentration 49.5 uM, Number of replicates 2.0, Standard deviation 3.9991573738943345 %",-1.89%
same,inhibition,"Thailand/16681/1984, Concentration 99.01 uM, Number of replicates 2.0, Standard deviation 4.0540572265618975 %",-1.21%
same,inhibition,"Thailand/16681/1984, Concentration 198.0 uM, Number of replicates 2.0, Standard deviation 4.165455814742133 %",0.45%
COc1cc(-c2ccccc2C(=O)Nc2cnn(C)c2)ccc1O,inhibition,"Thailand/16681/1984, Concentration 49.5 uM, Number of replicates 2.0, Standard deviation 2.595283339618205 %",-1.47%
same,inhibition,"Thailand/16681/1984, Concentration 99.01 uM, Number of replicates 2.0, Standard deviation 3.3571879148786463 %",-0.48%
same,inhibition,"Thailand/16681/1984, Concentration 198.0 uM, Number of replicates 2.0, Standard deviation 1.6165328547159332 %",1.19%
NC[C@H]1C[C@H](NC(=O)[C@@H](NC(=O)OCc2ccccc2)c2ccc(OCc3ccccc3)cc2)C1,inhibition,"Thailand/16681/1984, Concentration 49.5 uM, Number of replicates 2.0, Standard deviation 3.3178745989931393 %",-6.14%
same,inhibition,"Thailand/16681/1984, Concentration 99.01 uM, Number of replicates 2.0, Standard deviation 3.966106616082213 %",-5.08%
same,inhibition,"Thailand/16681/1984, Concentration 198.0 uM, Number of replicates 2.0, Standard deviation 2.362147520244588 %",2.97%
O=Cc1ccc(N2CCC(C(=O)NCc3cc(F)cc(Cl)c3)CC2)cc1,inhibition,[1],10.1%
O=C(c1cc(Cl)ccc1NS(=O)(=O)c1ccc(Oc2ccccc2Cl)cc1)N1CCCC1,inhibition,"Thailand/16681/1984, Concentration 49.5 uM, Number of replicates 2.0, Standard deviation 0.3065647121254482 %",37.4%
same,inhibition,"Thailand/16681/1984, Concentration 99.01 uM, Number of replicates 2.0, Standard deviation 0.3046576515240273 %",55.4%
same,inhibition,"Thailand/16681/1984, Concentration 198.0 uM, Number of replicates 2.0, Standard deviation 0.40716687929743567 %",69%
Cc1cc(CO)c2cccc(Cc3cccc(C(=O)N[C@H]4C[C@@H](O)C4)c3)c2n1,inhibition,"Thailand/16681/1984, Concentration 49.95 uM, Number of replicates 2.0, Standard deviation 0.3715430142368757 %",6.97%
same,inhibition,"Thailand/16681/1984, Concentration 99.9 uM, Number of replicates 2.0, Standard deviation 0.8666943057865014 %",29.2%
Cn1cc(CNC(=O)c2ccccc2CN)cn1,inhibition,"Thailand/16681/1984, Concentration 49.5 uM, Number of replicates 2.0, Standard deviation 4.704758964680012 %",-1.53%
same,inhibition,"Thailand/16681/1984, Concentration 99.01 uM, Number of replicates 2.0, Standard deviation 3.3738585950449482 %",-6.84%
same,inhibition,"Thailand/16681/1984, Concentration 198.0 uM, Number of replicates 2.0, Standard deviation 1.4794083306984744 %",-5.39%
O=C(Cc1c[nH]c2cnccc12)N1CC[C@H](c2c[nH]c3ccccc23)C1,inhibition,"Thailand/16681/1984, Concentration 49.5 uM, Number of replicates 2.0, Standard deviation 0.795046349191922 %",1.23%
same,inhibition,"Thailand/16681/1984, Concentration 99.01 uM, Number of replicates 2.0, Standard deviation 0.6425272725557302 %",2.08%
same,inhibition,"Thailand/16681/1984, Concentration 198.0 uM, Number of replicates 2.0, Standard deviation 0.5377573721218945 %",4.32%
O=Cc1ccc(N2CCC(C(=O)N[C@@H](CO)Cc3ccccc3)CC2)cc1,inhibition,[1],15.5%
Cc1ccc(CN(CCN(C)C)C(=O)C2CCN(c3ccc(C=O)cc3)CC2)s1,inhibition,[1],13.2%
Cc1cc(CO)c2cccc(Cc3ccccc3NC(=O)[C@@H](N)CC(N)=O)c2n1,inhibition,"Thailand/16681/1984, Concentration 49.95 uM, Number of replicates 2.0, Standard deviation 0.9388389208439332 %",28.9%
same,inhibition,"Thailand/16681/1984, Concentration 99.9 uM, Number of replicates 2.0, Standard deviation 1.1783962129832455 %",59.7%
CCCCN(Cc1ccc(F)cc1)C(=O)C1CCN(c2ccc(C=O)cc2)CC1,inhibition,[1],16.4%
O=S(=O)(c1ccc(Oc2ccccc2Cl)cc1)N1CCc2[nH]c3ccc(Cl)cc3c2C1,inhibition,"Thailand/16681/1984, Concentration 49.5 uM, Number of replicates 2.0, Standard deviation 1.0628105882845442 %",0.501%
same,inhibition,"Thailand/16681/1984, Concentration 99.01 uM, Number of replicates 2.0, Standard deviation 1.9343048300605572 %",3.48%
same,inhibition,"Thailand/16681/1984, Concentration 198.0 uM, Number of replicates 2.0, Standard deviation 0.8704625712181634 %",8.23%
Cc1cc(CO)c2cccc(Cc3ccccc3C(=O)Nc3cccc(C(N)=O)c3)c2n1,inhibition,"Thailand/16681/1984, Concentration 49.95 uM, Number of replicates 2.0, Standard deviation 0.1803817681308647 %",4.23%
same,inhibition,"Thailand/16681/1984, Concentration 99.9 uM, Number of replicates 2.0, Standard deviation 0.18828716821235608 %",9.06%
O=Cc1ccc(N2CCC(C(=O)Nc3ccc(Br)c(Cl)c3Cl)CC2)cc1,inhibition,[1],11.4%
Cc1cc(C(N)=O)c2cccc(Cl)c2n1,inhibition,"Thailand/16681/1984, Concentration 49.95 uM, Number of replicates 2.0, Standard deviation 7.126306314460823 %",-2.36%
same,inhibition,"Thailand/16681/1984, Concentration 99.9 uM, Number of replicates 2.0, Standard deviation 6.288884680839078 %",0.295%
CN(C)Cc1cccc(C(=O)Nc2cc(Cl)cc(C(=O)NC(C)(C)CO)c2)c1,inhibition,"Thailand/16681/1984, Concentration 49.5 uM, Number of replicates 2.0, Standard deviation 3.5461007109102978 %",-1.4%
same,inhibition,"Thailand/16681/1984, Concentration 99.01 uM, Number of replicates 2.0, Standard deviation 3.950653726956785 %",-0.545%
same,inhibition,"Thailand/16681/1984, Concentration 198.0 uM, Number of replicates 2.0, Standard deviation 4.3168300986790715 %",0.264%
CN(Cc1nc2ccsc2c(=O)[nH]1)C(=O)C1CCN(c2ccc(C=O)cc2)CC1,inhibition,[1],11.8%

# Source: ChEMBL document CHEMBL5606460, “ASAP - DENV-2 NS2B-NS3 protease fluorescence single point” (2024)
